Data taken from PubChem BioAssay AID1460 (National Center for Advancing Translational Sciences (NCATS), 2008).
The whole screen tested about 270,000 compounds, of which about 5,800 (2.1%) were called active. Inconclusive results, whose numbers are uncertain, are shown with a selection of clear calls. Calls come from the whole dose curve; as a rule, active = well fitted inhibition curve with a large enough effect; inconclusive = small, poorly fitted or top-dose-only effect; inactive = flat fitted curve, though single readings scatter. Where the call is inconclusive, the potency comes from a doubtful curve fit.

target: Microtubule-associated protein tau (Homo sapiens) (UniProt P10636); assay: qHTS for Inhibitors of Tau Fibril Formation, Thioflavin T Binding; conditions: recombinant tau K18 P301L (four-repeat tau fragment), heparin-induced fibrillization, ThT fluorescence; series mostly up to 57.4 µM; note: nearly all actives have a fitted effect of over 55% in size
Procedure, shortened: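 Heparin-induced (20 uM) aggregation of recombinant human K18 P301L tau, 15 uM unlabeled with 0.24 uM labeled, pH 7 acetate buffer, 6 hr at 37 C with compound. Fibrils quantified by 30 uM ThT fluorescence after 1 hr ambient incubation.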
Potency is the fitted concentration of half-maximal effect; tags give direction and shape of the fitted curve.

Chain of UniProt P10636 (P10636 whole entry, looked up, the tested form may be a part): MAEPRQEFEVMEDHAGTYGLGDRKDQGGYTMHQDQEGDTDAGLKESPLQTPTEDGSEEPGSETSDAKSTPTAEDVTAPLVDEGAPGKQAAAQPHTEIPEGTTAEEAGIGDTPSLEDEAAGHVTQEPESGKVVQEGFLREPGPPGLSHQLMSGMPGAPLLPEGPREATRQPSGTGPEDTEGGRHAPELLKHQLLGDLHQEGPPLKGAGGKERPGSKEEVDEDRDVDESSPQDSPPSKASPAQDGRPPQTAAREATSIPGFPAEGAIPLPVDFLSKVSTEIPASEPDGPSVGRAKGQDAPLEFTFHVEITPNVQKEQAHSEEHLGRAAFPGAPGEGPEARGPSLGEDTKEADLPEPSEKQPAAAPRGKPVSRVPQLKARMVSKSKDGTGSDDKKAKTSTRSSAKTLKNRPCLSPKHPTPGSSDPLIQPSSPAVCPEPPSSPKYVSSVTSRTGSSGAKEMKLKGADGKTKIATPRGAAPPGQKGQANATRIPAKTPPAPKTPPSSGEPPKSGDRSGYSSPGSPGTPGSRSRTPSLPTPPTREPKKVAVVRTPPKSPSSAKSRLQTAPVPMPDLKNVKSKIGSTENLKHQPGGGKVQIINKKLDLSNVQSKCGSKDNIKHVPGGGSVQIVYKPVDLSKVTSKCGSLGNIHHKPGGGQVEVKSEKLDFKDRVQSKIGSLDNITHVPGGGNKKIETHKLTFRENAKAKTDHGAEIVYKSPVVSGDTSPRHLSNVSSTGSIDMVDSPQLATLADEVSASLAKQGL

Row | Structure (SMILES) | Potency
1 | O=C(O)/C=C/C(=O)c1ccc2c(c1)NC(=O)CO2 | inconclusive: 25.1 µM [inhibitor, partial curve]
2 | Cc1cc(C)cc(C(=O)OCC(=O)NCc2cccs2)c1 | inactive
3 | CC1(OC(=O)c2ccc(Cl)nc2)C(=O)C=C2C=C3CCCN3C=C2C1=O (stereo not drawn) | active: 5.01 µM
4 | CCOc1ccc(-c2nnc3sc(COc4ccc(C)cc4)nn23)cc1 | inconclusive: 10 µM [inhibitor, partial curve, poor fit]
5 | N/C(=N\OC(=O)COc1ccc(Br)cc1)c1cccnc1 | inconclusive: 20 µM [inhibitor, partial curve, poor fit]
6 | C/C(=N\NC(=O)C1COc2ccccc2O1)c1ccc(N2CCOCC2)cc1 (stereo not drawn) | inconclusive: 8.91 µM [inhibitor, partial curve]
7 | O=C1S/C(=C\c2ccc(N3CCOCC3)o2)C(=O)N1c1ccccc1 | active: 11.2 µM
8 | CCOC(=O)c1[nH]c(C)c(C(=O)OCC(=O)N2CC(=O)Nc3ccccc32)c1C | inactive
9 | CN1CCN(C(=S)NC(=O)/C=C/c2ccccc2Cl)CC1 | inconclusive: 1 µM [inhibitor, partial curve, poor fit]
10 | CC(Sc1nc(=O)cc(N)n1CCc1ccccc1)C(=O)Nc1ccc(Cl)cc1 (stereo not drawn) | inactive
11 | COc1ccc(NC(=O)CSc2nnc(-c3ccccc3Cl)n2Cc2ccco2)c(OC)c1 | inactive
12 | O=C(/C=C/c1ccccc1)NNc1ccc(Cl)cc1 | inactive
13 | COc1ccc2c(c1)c1nc3ccccc3nc1n2Cc1ccc(OC)c(OC)c1 | inconclusive: 3.98 µM [inhibitor, partial curve]
14 | O=C1COc2cc(S(=O)(=O)NCc3ccco3)c(Cl)cc2N1 | inconclusive: 12.6 µM [inhibitor, partial curve]
15 | Oc1ccccc1C(=S)N1CCCCC1 | inconclusive: 25.1 µM [inhibitor, partial curve, poor fit]
16 | Cc1ccc(NC(=O)CSCC(=O)Nc2ncc3c(n2)CC(c2ccco2)CC3=O)cc1 (stereo not drawn) | inconclusive: 25.1 µM [inhibitor, single point]
17 | O=C(O)CC(NC(=S)NCc1ccccc1)C(=O)O (stereo not drawn) | inconclusive: 20 µM [inhibitor, single point]
18 | COc1ccc(NC(=O)c2cc3c(=O)n4ccccc4nc3n2C)c(OC)c1 | inconclusive: 8.91 µM [inhibitor, partial curve]
19 | Cc1cc(/C=N/NC(=O)c2ccc(CN3CCOCC3)cc2)c(C)n1-c1ccccc1 | inconclusive: 15.8 µM [inhibitor, partial curve, poor fit]
20 | Nc1nc(SCc2ccc([N+](=O)[O-])cc2)c2ncn([C@@H]3O[C@H](CO)[C@@H](O)[C@H]3O)c2n1 | inactive
21 | CCc1ccccc1N(CC)C(=O)c1c(C)oc2ncnc(N3CCOCC3)c12 | inactive
22 | O=C(Nc1ccc(N2CCN(C(=O)c3ccco3)CC2)c(Cl)c1)c1cccnc1 | inconclusive: 15.8 µM [inhibitor, partial curve]
23 | Cc1ccc(N=Nc2ccc(C)cc2NC(=O)Nc2ccccc2F)cc1 | active: 1.26 µM

Row | Structure (SMILES) | Potency
24 | Oc1ccc(CNc2ccc(F)cc2)c2cccnc12 | inconclusive: 14.1 µM [inhibitor, partial curve]
25 | N#Cc1nc(-c2cccs2)oc1NCCc1ccccc1 | inconclusive: 15.8 µM [inhibitor, partial curve]
26 | COc1ccc(-c2oc3c(OC)c(OC)c(OC)c(O)c3c(=O)c2OC)cc1OC | inconclusive: 28.2 µM [inhibitor, single point]
27 | CCC(c1nnnn1CC1CCCO1)N(CCN1CCOCC1)Cc1cc2cc(C)ccc2[nH]c1=O (stereo not drawn) | inconclusive: 20 µM [inhibitor, partial curve]
28 | Cc1ccccc1N1CC(C(=O)Nc2nnc(SCC(=O)Nc3nccs3)s2)CC1=O (stereo not drawn) | inactive
29 | CCN(CC)c1ccc(/C=N/N2CCOCC2)cc1 | inconclusive: 14.1 µM [inhibitor, partial curve]
30 | CSCC[C@H](NC(=O)[C@H](Cc1ccccc1)NC[C@@H](NC[C@@H](N)CS)C(C)C)C(=O)O | active: 25.1 µM
31 | C/C(=N/NC(=O)CNC(=O)c1ccc2c(c1)OCO2)c1ccc2c(c1)CCCC2 | inconclusive: 10 µM [inhibitor, partial curve]
32 | N=C1N(/N=C/c2ccccc2)C(=Nc2ccccc2)C(=S)N1c1ccccc1 | inconclusive: 3.16 µM [inhibitor, full curve]
33 | COc1ccc(-n2cc(-c3ccc(Cl)cc3)[nH]c2=S)cc1 | inconclusive: 1.12 µM [inhibitor, full curve, poor fit]
34 | Cc1cc(C)c2c(c1)NC(=O)C2(O)CC(=O)c1cccs1 (stereo not drawn) | inconclusive: 11.2 µM [inhibitor, partial curve]
35 | O=C(N/N=C\c1ccc(Cl)cc1Cl)c1sccc1-n1cccc1 | inconclusive: 31.6 µM [inhibitor, single point]
36 | CCN(c1ccccc1)c1nnc(NC(=O)Nc2ccc(Br)cc2)s1 | inactive
37 | CCc1cc2c(=O)c(-c3nc4ccccc4n3C)c(COCC(=O)O)oc2cc1OC(=O)C(C)(C)C | inconclusive: 15.8 µM [inhibitor, partial curve]
38 | COc1ccc(-c2nn(-c3ccccc3)cc2/C=N/Nc2cccc(C(=O)O)c2)cc1 | inconclusive: 28.2 µM [inhibitor, partial curve]
39 | CC1(C(=O)OCC(=O)c2c[nH]c3ccccc23)CC1(Cl)Cl (stereo not drawn) | inactive
40 | Cc1noc(C)c1COc1cccc(C(=O)OC(C)C(=O)Nc2ccc3c(c2)OCO3)c1 (stereo not drawn) | inconclusive: 39.8 µM [inhibitor, single point]
41 | Cc1cccc(C(=O)Nc2sc3c(c2C(=O)N2CCCCC2)CCC(C)C3)c1 (stereo not drawn) | inconclusive: 31.6 µM [inhibitor, single point]
42 | CC(=O)N1CCOc2cc(S(=O)(=O)NC(C)c3ccccc3)c(Cl)cc21 (stereo not drawn) | inconclusive: 0.251 µM [inhibitor, full curve, poor fit]
43 | COc1ccc(CCNc2cc(C)nc3c(-c4ccc(Cl)cc4)cnn23)cc1OC | inconclusive: 5.01 µM [inhibitor, partial curve]
44 | COc1cccc(C2=C(C(C)=O)Sc3nncn3N2C(C)=O)c1 | inconclusive: 4.47 µM [inhibitor, partial curve]
45 | O=C(CCN1C(=O)CSC1=O)Nc1ccc(Br)cc1 | inactive
46 | COC(=O)Nc1nc2c(C)cccc2s1 | inconclusive: 17.8 µM [inhibitor, single point]

Row | Structure (SMILES) | Potency
47 | O=C1C=C(Nc2ccccc2O)c2ccccc2C1=O | inconclusive: 20 µM [inhibitor, partial curve]
48 | CCOC(=O)C1=C(O)/C(=C\c2cc(C)n(-c3ccc(F)cc3)c2C)N=C1C | inconclusive: 5.62 µM [inhibitor, single point]
49 | c1ccc(CCNc2nc(-c3cccnc3)cs2)cc1 | inconclusive: 15.8 µM [inhibitor, partial curve]
50 | O=C1CCCC2=C1C(c1ccc(Cl)cc1)N1C(=O)CCSC1=N2 (stereo not drawn) | inactive
51 | Cc1nc([N+](=O)[O-])c(Br)n1CC(=O)c1ccc2ccccc2c1 | inconclusive: 20 µM [inhibitor, partial curve]
52 | O=C(N/N=C/c1ccccc1[N+](=O)[O-])c1cccs1 | inconclusive: 14.1 µM [inhibitor, partial curve, poor fit]
53 | O=C(CCSc1ccccc1)N1CCN(c2ccccc2)CC1 | inconclusive: 5.62 µM [inhibitor, partial curve]
54 | CCc1ccc(OC(C)c2nc(-c3ccc(-n4cccc4)cc3)no2)cc1 (stereo not drawn) | inconclusive: 3.16 µM [inhibitor, full curve]
55 | O=C(O)CSc1cccc[n+]1[O-] | inactive
56 | Cc1cc(C)c(C(=O)COC(=O)c2ccc(NC(=O)CC#N)cc2)cc1C | inconclusive: 11.2 µM [inhibitor, partial curve, poor fit]
57 | Cc1c(-c2ccc(F)cc2)nc(N)c(C#N)c1-c1ccco1 | inconclusive: 3.55 µM [inhibitor, full curve, poor fit]
58 | CCOc1ccc2cc(C#N)c(SCC(=O)N3CCOCC3)nc2c1 | inactive
59 | O=C(/C=C/c1ccccn1)c1cc(Br)ccc1O | inconclusive: 22.4 µM [inhibitor, single point]
60 | CCc1nn2c(=O)cc(COc3ccc(/C=C4\C(=N)N5N=C(CC(C)C)SC5=NC4=O)cc3)nc2s1 | inconclusive: 3.98 µM [inhibitor, full curve]
61 | CCOC(=O)c1ccccc1NC(=O)CSc1ncc(CO)n1Cc1ccc(C)cc1 | inactive
62 | O=C(Nc1ccc2oc(=O)ccc2c1)c1ccc(-c2cccc([N+](=O)[O-])c2)o1 | inconclusive: 0.708 µM [inhibitor, full curve]
63 | CCOC(=O)c1c(CSC(=N)N)n(-c2ccccc2)c2cc(Br)c(OC(C)=O)cc12 | inconclusive: 25.1 µM [inhibitor, partial curve]
64 | COc1ccc(/C=N/Nc2ncnc3sc(C)c(C)c23)cc1 | inconclusive: 4.47 µM [inhibitor, partial curve]
65 | Cc1ccc(/C=C(\C#N)C(=O)Nc2c(C)cccc2C)s1 | inconclusive: 17.8 µM [inhibitor, partial curve]
66 | COC(=O)CN1C(=S)N(c2ccc(Cl)cc2)C(=O)C1CC(=O)Nc1ccc(Cl)cc1 (stereo not drawn) | inconclusive: 2.51 µM [inhibitor, full curve]
67 | CN(c1ccccc1)S(=O)(=O)c1ccc(NC(=O)c2cccs2)cc1 | inactive
68 | O=c1sc(N2CCN(c3ccccc3F)CC2)nc2ccsc12 | inconclusive: 3.55 µM [inhibitor, full curve]
